Data on 110 compounds can be found in PubChem BioAssay AID488969 (Vanderbilt High Throughput Screening Facility, 2010).

Whole data set: some 110,000 compounds, median “z-score” near -0.1, cut for the highest 2% near 2. This is one part of the list. Calls of active or inactive are those of the source.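 Rule for the calls: active = z-score in the third read window above 3 or below -3; inactive = the rest.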

This test deals with Metabotropic glutamate receptor 8 (Rattus norvegicus) (UniProt P70579). The test can be described thus: rat mGluR8 modulators via GIRK flux, primary screen, cell-based, thallium flux, HTS (AID 488969). The settings on record: HEK293 rat mGluR8, GIRK (G protein-gated inwardly rectifying potassium channel) thallium flux, FluoZin2; at 10 µM; stronger effect = higher value; submaximal glutamate (EC20) added with thallium.
UniProt P70579, sequence (P70579 whole entry, looked up): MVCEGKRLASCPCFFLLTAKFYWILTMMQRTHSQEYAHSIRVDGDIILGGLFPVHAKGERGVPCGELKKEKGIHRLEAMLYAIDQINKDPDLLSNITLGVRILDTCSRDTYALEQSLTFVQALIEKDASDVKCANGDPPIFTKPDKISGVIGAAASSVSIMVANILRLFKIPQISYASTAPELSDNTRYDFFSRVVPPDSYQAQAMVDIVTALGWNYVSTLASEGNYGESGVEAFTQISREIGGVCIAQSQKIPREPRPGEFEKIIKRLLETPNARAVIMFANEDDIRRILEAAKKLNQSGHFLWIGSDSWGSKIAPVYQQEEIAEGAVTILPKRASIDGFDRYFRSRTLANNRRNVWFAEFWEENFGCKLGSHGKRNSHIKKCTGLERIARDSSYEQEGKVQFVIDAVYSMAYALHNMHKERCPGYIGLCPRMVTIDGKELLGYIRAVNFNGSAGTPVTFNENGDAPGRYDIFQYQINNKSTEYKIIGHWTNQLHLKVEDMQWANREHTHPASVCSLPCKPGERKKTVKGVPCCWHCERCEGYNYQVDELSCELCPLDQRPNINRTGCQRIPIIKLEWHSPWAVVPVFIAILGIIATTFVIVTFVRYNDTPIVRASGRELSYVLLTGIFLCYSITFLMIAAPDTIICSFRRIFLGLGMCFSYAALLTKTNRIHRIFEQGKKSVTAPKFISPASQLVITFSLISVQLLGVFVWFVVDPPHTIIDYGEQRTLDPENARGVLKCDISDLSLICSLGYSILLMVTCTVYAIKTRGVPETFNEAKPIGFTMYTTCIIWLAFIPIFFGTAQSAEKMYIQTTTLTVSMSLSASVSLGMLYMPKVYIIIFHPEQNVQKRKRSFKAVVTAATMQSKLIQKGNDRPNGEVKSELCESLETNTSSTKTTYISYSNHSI
Compound `CC(=O)Nc1cc(S(=O)(=O)C(F)(F)F)ccc1Cl` yielded a z-score of 0.128.
Then `CC1CN(CC(=O)Nc2cccc(C(=O)Nc3cccc(C(F)(F)F)c3)c2)CC(C)O1` (stereo not given), with -0.157; and `C=CCn1c(-c2ccccc2)n[nH]c1=S`, with -0.0664; and `Cc1ccc(NC(=O)C(=O)NCCN2CCN(C(=S)Nc3ccccc3)CC2)cc1`, with -0.0905.
Then `CCn1c(N)nc2c1c(=O)n(C)c(=O)n2C`, with -0.0494; and `CCOC(=O)COc1c(Cl)cc(C2NC(=S)NC(c3ccccc3)=C2C(C)=O)cc1OC` (stereo not given), with -0.494.
Then `CC(C)OC(=O)C1CC=CCC1C(=O)Nc1ccc(Cl)cc1` (stereo not given), with 0.303.
Compound `O=C(OCCN=C1NS(=O)(=O)c2ccccc21)C1CC(=O)N(c2ccc(Cl)cc2)C1` (stereo not given) displayed a z-score of -0.929.
Then `COc1cc(NC(=O)c2cc3nc(C)cc(C)n3n2)c(OC)cc1Cl`, with 0.225; and `O=C(CCn1c(=O)c2ccccc2n(CC(=O)NC2CCCC2)c1=O)NCCc1ccc(Cl)cc1`, with -0.252; and `CCC(=O)N=c1sc2cc(F)cc(F)c2n1C`, with -0.41.
Then `Cc1ccc2sc3ccc(NC(=O)c4ccccc4Cl)cc3c(=O)c2c1`, with -0.266.
For the compound `COC(=O)c1sc2ccccc2c1NC(=O)c1ccc(S(=O)(=O)N2CCC(C)CC2)cc1`, the z-score was -0.0994.
Then `Cc1csc(NC(=O)C2CCCN(S(=O)(=O)c3cnc[nH]3)C2)n1` (stereo not given), with 0.36.
Compound `CC(=O)NS(=O)(=O)c1ccccc1` showed a z-score of 0.331.
Then `Cc1ccccc1Sc1ncnc2onc(C)c12`, with -0.106; and `O=C(c1cc(-c2ccc(O)cc2)on1)N1CCCc2ccccc21`, with -0.181; and `COCCn1nnnc1C(c1cc2cc(C)ccc2[nH]c1=O)N1CCCCCC1` (stereo not given), with -0.105.
As for `COCCNc1nc(N)c([N+](=O)[O-])c(NCCO)n1`, the z-score was -0.583.
`COc1ccccc1-c1cc(SC)c(C#N)c(=O)o1` returned a z-score of -0.292.
Regarding `CCC(c1ccccc1)c1nc(-c2ccccn2)no1` (stereo not given), the z-score was -0.198.
Then `Cc1cc(C)n(C(=O)c2ccc(S(=O)(=O)NCC3CCCO3)cc2)n1` (stereo not given), with -0.0446; and `COc1ccccc1N1CCN(C(=O)c2ccc(S(=O)(=O)N3CCCCC3)cc2)CC1`, with 0.712.
Then `CCN(CC)S(=O)(=O)c1ccc(C(=O)OCn2nnc3ccccc3c2=O)cc1`, with -0.0924; and `CCOC(=O)c1cnn(Cc2ccccc2Cl)c1N`, with -0.517; and `O=[N+]([O-])c1ccc(N2N=C(c3ccco3)CC2c2ccccc2)cc1` (stereo not given), with -0.317.
Then `Cc1ccc(S(=O)(=O)c2cc(OC(=O)c3ccco3)ccc2OC(=O)c2ccco2)cc1`, with 0.228.
Compound `CCCCC1OC2(C)OC(=N)C1(C#N)C(C#N)(C#N)C2c1ccccc1` (stereo not given) registered a z-score of -0.655.
Then `S=c1[nH]ncn1/N=C/c1ccc(N2CCOCC2)cc1`, with 0.0792; and `Cc1cc(C(F)(F)F)nn1CC(=O)NNC(=S)Nc1ccc(F)cc1`, with 0.281; and `COc1ccc(S(=O)(=O)N2CCCCC2)cc1C(C)C`, with 0.47.
Then `Cc1cc(OCCCC(=O)NCCN2C(=O)S/C(=C\c3cccnc3)C2=O)ccc1Cl`, with 1.18; and `CCOc1ccc(C(=O)NC(=S)N(Cc2ccccc2)Cc2ccccc2)cc1`, with active: 11.7; and `Cc1ncc(S(=O)(=O)c2ccccc2)c(-c2ccccc2Cl)n1`, with -0.138.
In turn, `C/C(=N\NC(=O)C1(C)CC1(Br)Br)c1cccc(NC(=O)C2CCC2)c1` (stereo not given) came in with a z-score of -0.455.
Then `CC1CCCCC1NC(=O)CSc1nnc(CN2CCOCC2)n1C` (stereo not given), with 0.12.
Then `Cc1ccc(-n2c(C)cc(/C=N/NC(=O)CC3(C)OCCO3)c2C)c(C)c1`, with -0.381; and `COc1ccc(COc2ccsc2C(=O)Nc2ccc(Cl)cc2)cc1`, with -0.0169.
`O=C(CSc1nnc(CCCN2C(=O)c3cccc4cccc(c34)C2=O)n1-c1ccccc1)N1CCCCC1` had a z-score of -1.09.
In turn, `CCC(C)C(NC(=O)C1CCC(C)CC1)C(=O)NCc1ccccn1` (stereo not given) gave a z-score of 0.219.
For `CCOC(=O)c1sc(NC(=O)CSc2nc(-c3ccco3)cc(C(F)(F)F)n2)c(C#N)c1C`, the z-score was -1.04.
Then `COc1ccc(C2C=C(c3ccccc3)Nc3nc(CCCO)nn32)cc1` (stereo not given), with -0.168; and `CCOc1ccc(C(=O)N/N=C/c2ccc(-c3ccc(S(=O)(=O)Nc4ncccn4)cc3)o2)cc1`, with -0.00828.
Then `O=C(CN(Cc1ccccc1)S(=O)(=O)c1ccccc1)N/N=C/c1ccc2c(c1)OCO2`, with -0.185.
Then `COc1ccc(CCN2CC(C(=O)NCc3ccco3)CC2=O)cc1OC` (stereo not given), with 0.142; and `COc1ccc(OCCOCCN2CCc3ccccc3C2)cc1`, with 0.489; and `CCOC(=O)c1c(NC(=S)NC(=O)c2ccc(Cn3cc(Cl)cn3)o2)sc2c1CCC(C)C2` (stereo not given), with -0.144.
`Cc1ccc(-c2ccc(C(=O)O)[nH]2)cc1` came in with a z-score of 2.4.
Then `O=C(NN1C(=O)C2C3CCC(O3)C2C1=O)c1ccc(Cl)cc1` (stereo not given), with -0.19; and `COc1ccccc1-n1c(SCC(=O)NC(C)(C)C)nc(O)cc1=O`, with 1.96.
Then `COc1cc(/C=C2\C(=O)N(CCC#N)N=C2C)c(Br)cc1OC(C)C`, with -0.384.
`CC(CCc1ccccc1)NC(=O)c1ccc(Cl)nc1` (stereo not given) displayed a z-score of -0.894.
Then `Cc1cc(C)cc(-n2cc[nH]c2=S)c1`, with 0.141.
As for `CC(C)[C@H](NC(=O)OCc1ccccc1)C(=O)NCc1ccccc1`, the z-score worked out at 0.156.
Then `C=COCCNC(=O)Nc1ccc(Cl)cc1Cl`, with 0.104; and `CCOc1ccc(C(C)NC(=O)C2CCC2)cc1` (stereo not given), with -0.117.
Then `COc1ccc2c(c1)O/C(=C\c1sccc1C)C2=O`, with -0.62; and `CCN(C(=O)c1coc(=O)c(Br)c1)c1ccc2c(c1)OCO2`, with 1.14.
`Cc1ccccc1CSc1nc2n(n1)C(c1cccs1)C1=C(CCCC1=O)N2` (stereo not given) yielded a z-score of -1.16.
Then `O=C(NCCC1=CCCCC1)c1ccc(Br)o1`, with -0.563; and `Cc1cc(-c2ccccc2C(=O)O)on1`, with 0.117.
`CCCN1C(=O)/C(=N\OCC(=O)NC23CC4CC(CC(C4)C2)C3)c2ccccc21` showed a z-score of -0.337.
Then `CCOC(=O)c1cc(CC)sc1NC(=O)COc1ccc2c(C)cc(=O)oc2c1`, with -0.465.
Then `O=[N+]([O-])c1c(NCCO)cc(Sc2nc3ccccc3s2)c2nonc12`, with 1.68.
Then `Cc1cccc(C(C)C)c1NC(=O)c1cccnc1`, with 0.119; and `Cc1cc(C)cc(N(C(=O)c2cc3ccccc3oc2=O)C2C=CS(=O)(=O)C2)c1` (stereo not given), with -0.11; and `CN(Cc1ccccc1)Cc1nc2c(c(=O)n(C)c(=O)n2C)n1CCc1ccccc1`, with -0.154.
`Cc1cc(C)nc(NS(=O)(=O)c2ccc(NC(=O)C3(c4ccccc4)CCCC3)cc2)n1` gave a z-score of -0.192.
For the compound `O=c1[nH]cnc2cc(-c3ccccc3)sc12`, the z-score is -0.416.
In turn, `Cc1c(Cl)cccc1NC(=S)NCCCN(C)C` gave a z-score of -0.139.
In the case of `O=[N+]([O-])c1ccc(N2CCCC2)cc1N1CCCC1`, the z-score was -0.564.
Then `O=C(Cn1c(=O)n(-c2ccc(F)cc2)c(=O)c2sccc21)c1ccccc1`, with -0.796; and `Cc1cc(C2=NNC(=NC3CC3)SC2)c(C)n1-c1ccccc1`, with -1.27.
Consider `N#Cc1ccc(/C=N/NC(=O)c2cc(-c3cccs3)nc3ccccc23)cc1`, for which the z-score was -0.302.
Then `Cc1nn(-c2ccccc2)c(OC(=O)c2cccs2)c1S(=O)(=O)c1ccccc1`, with -1.11.
Then `O=C(O)CSc1cnc2ccccc2n1`, with -0.0271; and `C=CCn1c(N)c(C(=O)NC2CCCCC2)sc1=S`, with -0.117.
Then `O=C1c2cccc3cccc(c23)C(=O)N1CC1CCN(S(=O)(=O)c2ccc(F)cc2)CC1`, with -0.403.
With `Cc1cccc(CCNS(=O)(=O)c2ccc(S(=O)(=O)NC3CCCC3)cc2)c1`, the z-score is -0.217.
Then `O=S(=O)(c1cc(F)cc(F)c1)N1CCN(c2ncccn2)CC1`, with -1.38; and `O=C(c1ccco1)N1CCN(C(=O)c2cnn3c2NC(c2cccs2)CC3C(F)(F)F)CC1` (stereo not given), with active: -7.82; and `Cc1nn(C)c(C(=O)N/N=C/c2ccc(Br)cc2)c1Cl`, with -0.485.
Then `Cc1ccccc1S(=O)(=O)Cc1ccc(C(=O)NC(C)c2ccc3c(c2)OCCO3)o1` (stereo not given), with -0.387.
Then `Cn1c(=O)n(C)c2cc(C(=O)O)ccc21`, with -0.421; and `Cc1cccc2cc(C#N)c(NCCNS(=O)(=O)c3ccc4c(c3)OCCO4)nc12`, with 0.418; and `O=C(Nc1cc(Cl)ccc1Oc1ccccc1)c1ccccc1F`, with active: 3.37.
On to `Cc1cc(C)n(-c2nc3c(c(=O)n(Cc4ccc(Cl)c(Cl)c4)c(=O)n3C)n2C)n1`, for which the z-score is -0.0996.
Then `O=C(CCn1cccc1)NCc1ccc2c(c1)OCO2`, with -0.423; and `N#Cc1nc(COc2ccccc2Cl)oc1NCc1ccco1`, with -0.293; and `COC(=O)c1ccc(C(=O)OC)c(NC(=O)CN(C)Cc2ccc(Cl)c(Cl)c2)c1`, with -0.0899.
Compound `COc1ccc(N2C(=O)c3ccccc3NC23C(=O)N(C)c2ccccc23)cc1` (stereo not given) returned a z-score of -0.201.
Then `Cc1ccc(-c2nn3nnnc3c3ccccc23)cc1`, with -0.97; and `CCCCNC(=O)CN1C(=O)C(CC)Oc2ccc(Cl)cc21` (stereo not given), with -0.426.
Then `COc1cc(S(=O)(=O)NCc2ccccn2)c(OC)cc1Cl`, with -0.212; and `COC(=O)n1c(=O)oc2cc(S(=O)(=O)N3CCCCC3)ccc21`, with 0.0194.
The compound `Cc1ccc(CNc2ccc3c(c2)OCO3)cc1` registered a z-score of -0.24.
Then `C1=C(CCNCC2CC2)CCCC1`, with 0.204.
Then `O=C(Nc1ccc2c(c1)nc1n2CCOC1)c1ccco1`, with 0.21; and `CC1CCCC(C)N1C(=O)CSc1nnc(-c2c[nH]c3ccccc23)o1` (stereo not given), with -0.517; and `CCOC(=O)c1c(C)n(C)c2ccc(O)c(CN3CCC(C)CC3)c12`, with active: 3.63.
Compound `Cc1c(C(C)O)nnn1-c1nonc1N` (stereo not given) displayed a z-score of 0.215.
Then `CC12CCC(C(N)=O)(c3nc4ccccc4nc31)C2(C)C` (stereo not given), with -0.00707; and `CCN(CC)S(=O)(=O)c1ccc(C(=O)OC2CCCCC2CN(C)C)cc1` (stereo not given), with -0.992; and `Cc1ccc(-c2csc3ncnc(-n4cnc5ccccc54)c23)cc1`, with -0.525.
Then `c1ccc(CC2CCN(c3nc4ccccc4n4cnnc34)CC2)cc1`, with -0.185.
Then `COc1ccc(NS(=O)(=O)c2ccc(NS(C)(=O)=O)cc2)cc1`, with -0.688; and `COc1ccc(CN(CC2CCCO2)C(=O)CN2C(=O)C(C)Oc3ccc(C)cc32)cc1OC` (stereo not given), with -0.371; and `O=C(O)CC1S/C(=N/N=C/c2ccc(-c3ccccc3[N+](=O)[O-])o2)NC1=O` (stereo not given), with -0.268.
Consider `CCN(CC)CCCNC(=O)Cc1c(C(=O)O)n(C)c2ccccc12`, for which the z-score was 0.239.
Then `CC1(C)CC(=O)C/C(=N\NC(=O)c2cccs2)C1`, with 0.00718.
